This is one part of the list.
test system: PfSIP2 AP2 domain 1 (GST-tagged); experiment: gcPBM binding intensity (ln(normalized median fluorescence intensity)); higher = stronger DNA binding
Method in brief: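 The binding buffer was 1× PBS containing 1% milk, 0.2 mg/ml BSA, 0.5% salmon testes DNA and 0.03% Triton X-100. In it, GST-tagged P. falciparum DNA-binding domains expressed in E. coli were applied for 1 h to an Agilent 4 × 180k array of primer-extended double-stranded 36-bp intergenic genomic probes plus negative controls. Binding intensity, read with Alexa488 anti-GST antibody and a 488 nm scan, is the highest Masliner-normalised natural-log median intensity across replicate spots of either probe orientation.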

| Sequence | gcPBM binding intensity (ln) |
| --- | --- |
| TACATACATACATACACACATACATATATATATATA [CACACA_site1387] | 9.5 |
| TCTTTTATTAGTAAAAGTACTTATATAAATATTATA [XGTACX_site5099] | 6.98 |
| ATAATATAATAAACGTGTACACAATTAAATTATTAT [XGTACX_site3491] | 7.36 |
| AATACTCTATTTTATAGTACATATATTATTAATCAC [XGTACX_site6622] | 6.96 |
| GAAAAAAAAAAAAATACACACAAATTGGTATATAAT [CACACA_site4369] | 6.72 |
| TATCAAATCCAAAGGGGTACATTTTGTTGTCCTAAT [XGTACX_site5575] | 7.2 |
| TAGCTCGTTCGGAGCACACACATATAAATAAATATA [CACACA_site7002] | 6.83 |
| ATAGACAGCGCACAAACACACAAACACGCACGCACA [CACACA_site6349] | 8.7 |
| TAGGGATTATACCACACACACATACCCATAAATATA [CACACA_site5719] | 6.9 |
| TATTTACATGTAAAAGGTACACACATTATATATACA [XGTACX_site2157] | 7.1 |
| TAAAATAAAACAAACACACACACACCCCCACAAAAA [CACACA_site3850] | 8.65 |
| TTTATTATTTTTTGTAGTACTTTATATAAAAGTTCT [XGTACX_site4494] | 7.25 |
| ATACACTTTTATATATCAATACATTATGTATTAAGT [CACACA_negctrl_site421] | 7.14 |
| CCTCTTTATTTTAATTGTACATTTTTGTAGGTTTTT [XGTACX_site7130] | 7.33 |
| AAAACAAACCCATTTACACACATAAATAAATCAATT [CACACA_site6126] | 7 |
| ATGTATATATATATATGTACTAATTAGTAATTTACG [XGTACX_site6276] | 7.27 |
| TCCTTTTTTTTGTAATGTACTTAGTTTGGTTATATG [XGTACX_site8208] | 7.14 |
| TTTTTATTACTTCTCTGTACTCAGGAAAATAAATAT [XGTACX_site2092] | 6.94 |
| TGAATGTAAGAAAATACACACTAGTATAGTAACACC [CACACA_site5131] | 7.38 |
| TTGATTATAATTAGTACACACAAAATACATGCGGGG [CACACA_site2277] | 7.82 |
| AAATATATAATACATATGTAATATGCATATATATAT [GTGCAC_negctrl_site450] | 8.82 |
| AAGCATATTATAAACACACACTGTATAAAGATATAT [CACACA_site6277] | 6.86 |

| Sequence | gcPBM binding intensity (ln) |
| --- | --- |
| AAGTATAACCTTTATAATAATGACATGACCGATTTT [CACACA_negctrl_site395] | 6.83 |
| ATATAACGAATAATTACACACTATAAAAAAAGATCT [CACACA_site2862] | 6.9 |
| TATAACCGAATGTGTACACAAAATAATGTTATATAT [CACACA_site5627] | 7.21 |
| ATAATACGAATTTGTAGTACATTTATAATAACATGA [XGTACX_site2614] | 7.02 |
| TAAAAAACTTCGTGTTCACACATGTACTATATTATT [CACACA_site4796] | 7.12 |
| ACCCATAAGATAATTACACACAATACATCCCTATAT [CACACA_site5262] | 7.24 |
| TTTTTTTTTTTTTGTTGTACATTAAATATATTATTA [XGTACX_site7254] | 7.15 |
| TTTTAATAACCAATCCGTACATATAATCTTTATATT [XGTACX_site536] | 6.92 |
| TGGAAAAATAGGCACACACACATATATACATATATA [CACACA_site1297] | 6.97 |
| TAAAAGTTATAAGAGTGTACGTATATTTATATATCA [XGTACX_site2972] | 7.19 |
| TTATTATATTCTCCTTCACACACAAAAATATTTCAT [CACACA_site8738] | 7.25 |
| AGGACTAATATTTGAACACACATATAACATATACAT [CACACA_site7803] | 7.03 |
| CTTTTAAATTATTTTTGTACATAATTATATATATAT [XGTACX_site4128] | 8.44 |
| AACTATAAATATAAATGTACACATATGTAATATATA [XGTACX_site6085] | 6.97 |
| AAAAGGAAAATTTTCTTAGTAACTGCATTAAGAGAT [GTGCAC_negctrl_site675] | 7.04 |
| TACTGTTTAAAATATAAACACACATTGTTTGCTTTA [CACACA_site8358] | 6.98 |
| ATATGATGTAAAAGCACACATATATATATATATATA [CACACA_site4018] | 9.59 |
| TACTATAAAATGGAATGTACACATAAATATATCTAA [XGTACX_site6137] | 7.1 |
| GTTTATAACTATGTGTGTACACATTAATCGTTTTTC [XGTACX_site4364] | 7 |
| CACATACACATACACATACACACGCATAGAAACATA [CACACA_site2136] | 7.43 |
| TTGTATAAATATGTATGTATATAATATATGTAAAGA [TGCATGCA_negctrl_site93] | 7.05 |
| AAATCGTGTACATTGACACACATAATTTTTTTTATA [CACACA_site2463] | 7.13 |

| Sequence | gcPBM binding intensity (ln) |
| --- | --- |
| AATATATTTATATAGTGTACATTTTTTATATATGTA [XGTACX_site8142] | 7.11 |
| TATTAATTTTTATTATGTACATAAATAATTTATATT [XGTACX_site5456] | 6.96 |
| GGATAGATCATTTACACACACAAAAAAAAAAAAAAA [CACACA_site2139] | 7.05 |
| ATAATATATTATTATAGTACTTTATTTTATTTTATG [XGTACX_site2387] | 6.97 |
| AATATATATATACATACATGCATACATATATATATA [TGCATGCA_site784] | 9.25 |
| TAAGGAAAAAGAAAAAGTACATTATATAATAAATAG [XGTACX_site3282] | 7 |
| CAAATATATGTTTTCACACACAAAAGAAATGAAACC [CACACA_site2162] | 6.78 |
| AAAAAAAATAAAATGAATAAATAAGAATTACATATT [CACACA_negctrl_site863] | 6.74 |
| AAAAAGAAGATATATACACACCAAAAAAAAAAAAAA [CACACA_site7471] | 6.74 |
| ATTTCATATACAAATTGTACATACAATTTTATGTTT [XGTACX_site3240] | 7.1 |
| TTAAAAATAATATTATGTACTAAGAATAAATATATA [XGTACX_site3100] | 6.88 |
| TGTTAAAATAAAATCTATTACATTTTTATGGTTATA [XGTACX_negctrl_site525] | 6.57 |
| TCTTGTAAATATATGTGTATATTATATTTTATTATA [TGCATGCA_negctrl_site117] | 6.88 |
| CTTAATATTCTTTAAAGTACACAAAATAAGAATATA [XGTACX_site5489] | 6.99 |
| TGCAAGGAAAAACACACACACACATAAATGTATATA [CACACA_site751] | 7.13 |
| AAAAAACACGCACATACACACAAAAATGTTATAAAT [CACACA_site6188] | 7.07 |
| TTATATTTTTTAATTACACACAATTTTTATAAATAT [CACACA_site4148] | 6.96 |
| ATCTCATAAAACCGCACACACATAAAATTTGCATTA [CACACA_site3891] | 7.55 |
| CTAGTAAAAAATGCAAGTACATACATTATAAGTATA [XGTACX_site3908] | 6.92 |
| ATATTGGAGCACAACACACACAAGTATAAATATGGA [CACACA_site6834] | 7.32 |
| AAAGAGAACAGAAGTACACACATGTTCTTTTAGTAA [CACACA_site5557] | 6.57 |
| ATATTCTGCTGTTTAGTGCAATTATGAAATTATGAT | 7.9 |

| Sequence | gcPBM binding intensity (ln) |
| --- | --- |
| TAAAAAATAAAAATTGCACACTAAAAAATTACCCAC [CACACA_site5823] | 7.78 |
| TTGATTTTTATTTTTAAAATAAATAAATTTCAAATG [TGCATGCA_negctrl_site199] | 6.99 |
| TTTTTTTTTCTTTGGTGTACAATGTAATAGAAAATA [XGTACX_site227] | 7.46 |
| AAAAAAAACAAACACACACACAAATATTTATATATT [CACACA_site436] | 6.95 |
| TAAAAAGAAATGTAAAGTACAAATTTGAATAACATG [XGTACX_site7981] | 7.08 |
| ATATGTATTTATATATGTTTGATTTTTTTTTTTTTT [TGCATGCA_negctrl_site506] | 7.01 |
| AGGAAAAAAGAAAAAACACACATAAATATATATATA [CACACA_site3085] | 9.02 |
| CATACAGACATACATACACACATACCTATAAATATA [CACACA_site6995] | 7.22 |
| AAATGAAATAAAATCATATATTTATAATTATTATAA [TGCATGCA_negctrl_site612] | 6.81 |
| TAGCTCGTTCGGAGCACACACATATATATATATATA [CACACA_site1948] | 9.79 |
| ATATGTATGTATGTATGTACTTATTTATTTATTAAT [XGTACX_site8018] | 7.08 |
| TACATAAATTAAAACACACACACACTAATAAAAAAA [CACACA_site8712] | 7.13 |
| GTTTTATTTTGTTTCTATTTGACACATGTGATTATT [CACACA_negctrl_site1246] | 7.35 |
| ATTCAATATATATACACACACACTTTTAATAATTAA [CACACA_site3770] | 7.09 |
| AAAAAATTATATAAATGTACATTTTGGCTAGACATG [XGTACX_site5977] | 6.92 |
| TTTTTTTTTGAATATTGTACATATATATTACTTTTA [XGTACX_site5520] | 6.8 |
| CATATATATAATTATTCACACAATAGTTAAAAGTAT [CACACA_site5302] | 6.9 |
| ATTAAGACACATTGCACACGTGCACCCATAGAAAAA [CACACA_site408] | 12.2 |
| GACCATATGAATAATGCACACGTTTTAAAATATTAA [CACACA_site5312] | 7.48 |
| TATTTATTATTAAGATGTACATAAAACACTGAATAA [XGTACX_site4246] | 6.91 |
| TGAAAAAGGAAAAAAAAAAAAAAAAAAAAAACGAAA [GTGCAC_negctrl_site555] | 6.75 |
| TTTTAATTAAGACACACACACACATATAAATATGTA [CACACA_site7144] | 7.03 |
